Values marked as one replicate rest on one cluster of the flow cell; about a third of the high ones do not repeat.
system: ATP; assay: switch fluorescence ratio, 500 uM ATP over buffer (Cy3 cluster intensity, sum of 5 cycles each) (fold (ratio)); higher = stronger signal-on switching upon ATP binding; sequences stand for … in TCGTCGGCAGCGTCAGATGTGTATAAGAGACAGTTTTTTTTTTTTTTTTTTTTTTTTT…TC; details: aptamer strand: ATP DNA aptamer (quencher-CACCTGGGGGAGTATTGCGGAGGAAGG + anchor), 100 nM annealed; ATP concentration: 500 uM; one replicate
Summary of the method: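 Per cluster, summed Cy3 intensity from the target cycles was divided by that from the buffer cycles to give the fluorescence ratio, then averaged per switch-domain sequence. Clusters outside 100-1000 RFU were excluded. The Cy3-labelled switching-strand clusters, on a modified Illumina MiSeq flow-cell, were annealed to 100 nM quencher-labelled ATP aptamer and imaged in selection buffer, then after 15 min with 500 uM ATP at 22 °C, for five cycles with NaOH stripping and re-annealing between them.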
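Further: ATP exposure 15 min at 22 °C before imaging.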

Sequence	switch fluorescence ratio
ACACCTTCCT	2.86
ACACGACATC	1.14
ACACGCGGGG	1.03
ACACGGGCT	0.987
ACACGGTGG	1
ACACGGTTGC	1.08
ACACGTAGG	1.05
ACACGTGCTC	0.993
ACACGTTCGT	0.98
ACACTCCGAC	1.81
ACACTGCACG	1.35
ACACTTGGCG	1.05
ACACTTTGTT	0.997
ACAGAATAAC	1.05
ACAGAATGTT	0.989
ACAGACAAAC	1.16
ACAGACCCAG	0.98
ACAGACCGTT	1.1
ACAGACTCTC	1.09
ACAGAGAAGT	1.01
ACAGAGTATA	1.01
ACAGATCTGC	0.955
ACAGATGTCC	1.01
ACAGATTTTC	0.986
ACAGCATTAT	1.23

Sequence	switch fluorescence ratio
ACAGCCTGTT	1.02
ACAGCCTTCT	0.999
ACAGCCTTGA	1
ACAGCGACCC	1.23
ACAGCGATAA	2.13
ACAGCTGGA	1.01
ACAGCTTTCA	0.997
ACAGGCTGT	1.01
ACAGGGCCGC	1.05
ACAGGGGCAT	1.04
ACAGGGTATC	0.958
ACAGGTCAGG	1.07
ACAGGTCGAC	1.06
ACAGGTCGCC	1.02
ACAGTCGGAC	1.02
ACAGTGCACA	0.999
ACAGTGTCCA	1.01
ACAGTTGCAT	0.996
ACATACGCGT	1.23
ACATAGACCA	1.06
ACATAGTATC	1.01
ACATATACAA	1.1
ACATATACAT	1.14
ACATATGGTG	1.07
ACATATGTGA	1.06

Sequence	switch fluorescence ratio
ACATCCAAAC	0.998
ACATCCACGT	1.43
ACATCGCCCC	1.07
ACATCGGAGT	0.997
ACATCGTCCG	1.05
ACATCGTTAT	0.997
ACATGAAAGG	1.03
ACATGACCTA	1.17
ACATGAGTAC	1.04
ACATGCAAGA	1.06
ACATGCATGA	0.996
ACATGCATGG	1.01
ACATGGAATA	0.983
ACATGGGTGT	1.02
ACATGTCGCA	1.07
ACATGTCTTA	1.02
ACATTAACAA	1.03
ACATTATACT	1.1
ACATTATCAT	1.01
ACATTCAGGC	1.03
ACATTCTCCA	1.01
ACATTGGACC	1.05
ACATTGTAGG	1.03
ACATTGTTAC	1.1
ACATTTACTC	1.23

Sequence	switch fluorescence ratio
ACATTTTATA	1.03
ACATTTTTA	1.04
ACCAAAAAT	1.02
ACCAAAGGCC	1.05
ACCAACTGCG	1.18
ACCAAGACGA	1.18
ACCAAGCCAC	1.22
ACCAATATGC	1.54
ACCACATTTT	1.05
ACCACCGATT	1.05
ACCACCGCGG	1.06
ACCACGATGA	1.1
ACCACGCTTC	1.34
ACCACGGGTC	1.05
ACCACGTGC	1.02
ACCACGTTGT	0.99
ACCAGATGGC	1.03
ACCAGCACCA	1.16
ACCAGCGCAT	1.47
ACCAGCGCTT	1.02
ACCAGCTTCG	1.06
ACCAGGATAG	1.07
ACCATAGAGC	1.05
ACCATATGAA	1.02
ACCATATGCT	1.09

Sequence	switch fluorescence ratio
ACCATATGGT	1.03
ACCATCCCTT	1.02
ACCATGAGAT	1
ACCATGTAAT	1.03
ACCATTGCTT	1.03
ACCATTGGTC	1.02
ACCCAAGGGG	1.24
ACCCAGGCTG	3.35
ACCCAGTCAA	1.1
ACCCAGTCGT	0.996
ACCCCATAAC	1.12
ACCCCCAAAA	1.35
ACCCGAAATT	1.02
ACCCGAAGGT	1.02
ACCCGACCTG	1.02
ACCCGATTGT	1.03
ACCCGCACCG	1.32
ACCCGGGTAT	2.01
ACCCGTTGAA	1.03
ACCCTCAGTT	1.03
ACCCTCTTAT	1.01
ACCCTCTTGC	1.08
ACCCTTCCGT	1.92
ACCCTTCTCC	1.64
ACCCTTGAAA	0.992

Sequence	switch fluorescence ratio
ACCGAAAACG	1.12
ACCGAATGC	2.32
ACCGACCCGG	1.04
ACCGAGGAAT	1.12
ACCGAGGTTA	0.998
ACCGAGTCTG	1.35
ACCGATTGGG	1.01
ACCGCATAAA	1.39
ACCGCCAAGG	1.03
ACCGCGCATC	1.96
ACCGCTGGAT	1.04
ACCGGCAAGC	2.12
ACCGGCGTGG	0.996
ACCGGGCCGC	1.08
ACCGGGCCGG	0.996
ACCGGGTCTT	0.967
ACCGGTTGT	1.01
ACCGTCCAGC	1.2
ACCGTGAGTT	1.01
ACCGTGCAAC	1.1
ACCGTGCTTG	1.04
ACCGTGTTCG	1.06
ACCGTTACTG	1.22
ACCGTTAGTA	1.01
ACCGTTTCC	1.5

Sequence	switch fluorescence ratio
ACCTAGAAAA	1.1
ACCTAGGGGT	1.01
ACCTAGTGAC	1.09
ACCTATGGGG	1.14
ACCTCACAGC	1.37
ACCTCGCAAG	4.49
ACCTCGTATT	1.01
ACCTGCCTTG	1.12
ACCTGCGAA	1.13
ACCTGGACTT	1.02
ACCTGTAAAC	1.01
ACCTGTCCCG	1.37
ACCTTATAAA	1.05
ACCTTATTAT	1.04
ACCTTCAAGG	1.03
ACCTTGACTC	1.2
ACCTTGCGAA	1.26
ACCTTGGACT	1.03
ACCTTGGTG	1.19
ACCTTTATTT	1.08
ACCTTTGAAT	1.04
ACCTTTGGGG	1.21
ACGAAACGAG	1.12
ACGAAAGGGC	1.05
ACGAAAGTTA	1.02

Sequence	switch fluorescence ratio
ACGAAGCCCA	1.35
ACGAAGGTGT	1.14
ACGAATTGGG	1.02
ACGACATTTG	0.992
ACGACCAGTC	1.19
ACGACCCCCG	1.5
ACGACCCGAA	1.13
ACGACTCGGT	1.09
ACGACTGTTT	1.29
ACGAGACGTT	1.09
ACGAGAGTTA	0.996
ACGAGTAGAT	1.05
ACGATAGGTT	1.08
ACGATCGTA	0.998
ACGATGATTT	0.948
ACGATGCCAA	1.08
ACGATGGCAG	1.09
ACGATGGCAT	1.53
ACGATGTCTG	0.977
ACGATTAACG	1.05
ACGATTTGGG	0.969
ACGCAAAAGG	1.09
ACGCAGTCGA	1.19
ACGCAGTTCA	1.02
ACGCATGTAC	4.08

Source: the supplement of paper PMC10126150
